This is one part of the list. The energies were worked out here from pooled read counts, against the library average; single values are noisy.

For the experiment, the target named is T1, Pho4 (S. cerevisiae) (UniProt P07270).
T1 sequence: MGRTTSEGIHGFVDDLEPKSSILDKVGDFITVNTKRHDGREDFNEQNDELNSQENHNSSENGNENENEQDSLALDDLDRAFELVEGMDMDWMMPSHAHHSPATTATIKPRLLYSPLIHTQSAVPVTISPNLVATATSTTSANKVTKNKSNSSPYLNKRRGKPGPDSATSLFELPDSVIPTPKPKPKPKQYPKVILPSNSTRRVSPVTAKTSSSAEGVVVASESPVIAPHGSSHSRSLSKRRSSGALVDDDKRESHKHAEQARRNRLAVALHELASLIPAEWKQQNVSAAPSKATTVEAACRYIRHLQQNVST
Put plainly: relative binding free energy (BET-seq); higher = weaker binding. Particulars: reference: library average.
In the case of GGGTTCACGTGAGCAG, the “relative binding free energy” value stood at 0.37 kcal/mol.

As for TGGGGCACGTGCGAGA, the “relative binding free energy” value is -0.12 kcal/mol.

As for GGGGTCACGTGTTTCT, the “relative binding free energy” value is 0.16 kcal/mol.

Turning to TGGTACACGTGGGCGT, the “relative binding free energy” value was -0.13 kcal/mol.

Turning to GGGACCACGTGTTATG, the “relative binding free energy” value amounted to 0.12 kcal/mol.

On to TGGACCACGTGGTGAT, for which the “relative binding free energy” value was -0.06 kcal/mol.

Consider CTGTTCACGTGGAATG, for which the “relative binding free energy” value is 0.36 kcal/mol.

On to TTTTTCACGTGATCGG, for which the “relative binding free energy” value came out at 0.22 kcal/mol.

In the case of CTTATCACGTGGCTTG, the “relative binding free energy” value was found to be 0.1 kcal/mol.

For the sequence CGGGGCACGTGTGGCT, the “relative binding free energy” value was -0.03 kcal/mol.

With TAGGACACGTGTTGTT, the “relative binding free energy” value amounted to 0.02 kcal/mol.

For TATCTCACGTGTTTAT, the “relative binding free energy” value was 0.19 kcal/mol.

As to GCGATCACGTGGGGGT, the “relative binding free energy” value came out at 0 kcal/mol.

TGAGTCACGTGGATAA: the “relative binding free energy” value is 0.24 kcal/mol.

Take GGAGTCACGTGGCGGG: the “relative binding free energy” value was -0.02 kcal/mol.

As for TGTTGCACGTGACGGC, the “relative binding free energy” value came to 0.11 kcal/mol.

With CCGTGCACGTGTGGGG, the “relative binding free energy” value is -0.02 kcal/mol.

On to GACTACACGTGGTGGG, for which the “relative binding free energy” value came out at 0.18 kcal/mol.

On to GGCGGCACGTGTGTAT, for which the “relative binding free energy” value worked out at 0.14 kcal/mol.

CTTGTCACGTGAGGGA: the “relative binding free energy” value was 0.24 kcal/mol.

Take CTATGCACGTGCGGGG: the “relative binding free energy” value was -0.15 kcal/mol.

As for GTAGACACGTGGTGGC, the “relative binding free energy” value is -0.05 kcal/mol.

Take GGTTGCACGTGAAATG: the “relative binding free energy” value came out at 0.26 kcal/mol.

In the case of GAGTTCACGTGATGAT, the “relative binding free energy” value is 0.36 kcal/mol.

Turning to GCGTTCACGTGGGAGT, the “relative binding free energy” value turned out to be 0.28 kcal/mol.

Take CTTTTCACGTGGGTCT: the “relative binding free energy” value amounted to 0.04 kcal/mol.

As for TAAGTCACGTGAAGTG, the “relative binding free energy” value was 0.38 kcal/mol.

In the case of TTTTCCACGTGCTTGT, the “relative binding free energy” value was determined as 0.1 kcal/mol.

In the case of GGGAACACGTGTTGTT, the “relative binding free energy” value turned out to be 0.16 kcal/mol.

Regarding GGGAACACGTGGCTTG, the “relative binding free energy” value was -0.04 kcal/mol.

Regarding CTGTGCACGTGGAATG, the “relative binding free energy” value was 0.07 kcal/mol.

Take TAAGGCACGTGGTAGG: the “relative binding free energy” value is -0.23 kcal/mol.

TCTATCACGTGGTGTG: the “relative binding free energy” value amounted to 0.06 kcal/mol.

For AAGTGCACGTGATGTG, the “relative binding free energy” value came out at 0.18 kcal/mol.

On to TGAAACACGTGAAGTT, for which the “relative binding free energy” value is 0.45 kcal/mol.

For GACGACACGTGGAGGG, the “relative binding free energy” value was -0.02 kcal/mol.

For the sequence CTGGTCACGTGACAGG, the “relative binding free energy” value worked out at 0.17 kcal/mol.

Take GTCTACACGTGAGGGT: the “relative binding free energy” value was 0.4 kcal/mol.

Regarding TAAGTCACGTGAAGGT, the “relative binding free energy” value turned out to be 0.31 kcal/mol.

Regarding GCATTCACGTGAGGGT, the “relative binding free energy” value came to 0.28 kcal/mol.

Take TTGTTCACGTGAATGG: the “relative binding free energy” value came out at 0.34 kcal/mol.

With TGGGGCACGTGTTCGT, the “relative binding free energy” value was -0.14 kcal/mol.

Regarding ACTATCACGTGTTGAG, the “relative binding free energy” value came to 0.17 kcal/mol.

Take TTAGACACGTGGTAGC: the “relative binding free energy” value turned out to be 0 kcal/mol.

CTGTACACGTGGTGTT: the “relative binding free energy” value was -0.08 kcal/mol.

Turning to GGGGTCACGTGAAAGA, the “relative binding free energy” value was 0.35 kcal/mol.

For the sequence CTTGGCACGTGTATGG, the “relative binding free energy” value was -0.07 kcal/mol.

With TATTGCACGTGGGACT, the “relative binding free energy” value was -0.07 kcal/mol.

For CGTTTCACGTGGAATT, the “relative binding free energy” value amounted to 0.49 kcal/mol.

Take GGATGCACGTGAGCTT: the “relative binding free energy” value was found to be 0.14 kcal/mol.

Regarding TGGGGCACGTGTGAAT, the “relative binding free energy” value was 0.01 kcal/mol.

TGACTCACGTGTGTTG: the “relative binding free energy” value stood at 0.12 kcal/mol.

As for TTGTACACGTGGTATT, the “relative binding free energy” value is 0.02 kcal/mol.

With TGCATCACGTGGGGGA, the “relative binding free energy” value was -0.11 kcal/mol.

Turning to GTCTGCACGTGAAGTT, the “relative binding free energy” value was 0.38 kcal/mol.

Take GTGAGCACGTGATGAT: the “relative binding free energy” value turned out to be 0.22 kcal/mol.

As to GTGTGCACGTGTATTC, the “relative binding free energy” value is -0.06 kcal/mol.

Take GGTCACACGTGGGGAC: the “relative binding free energy” value was 0.13 kcal/mol.

As for GTATACACGTGGGGCC, the “relative binding free energy” value turned out to be 0.07 kcal/mol.

Regarding GTGATCACGTGCATTG, the “relative binding free energy” value turned out to be 0.13 kcal/mol.

Consider CTTGGCACGTGCAGGG, for which the “relative binding free energy” value is -0.23 kcal/mol.

Regarding GATGGCACGTGAGAGG, the “relative binding free energy” value stood at 0.22 kcal/mol.

Consider TTTCTCACGTGTTATG, for which the “relative binding free energy” value is 0.25 kcal/mol.

With GGGGTCACGTGACGCG, the “relative binding free energy” value stood at 0.11 kcal/mol.

CTAGGCACGTGGCTTG: the “relative binding free energy” value was -0.15 kcal/mol.

For the sequence GGTTGCACGTGTCGCG, the “relative binding free energy” value came out at 0.02 kcal/mol.

For GGGTGCACGTGTTTTC, the “relative binding free energy” value amounted to 0.09 kcal/mol.

TCGAACACGTGGTGGG: the “relative binding free energy” value is -0.1 kcal/mol.

Take TGGAACACGTGTTGCA: the “relative binding free energy” value is 0.01 kcal/mol.

Take ATTTGCACGTGGCAGA: the “relative binding free energy” value stood at 0.07 kcal/mol.

Consider GGGAGCACGTGCAGGC, for which the “relative binding free energy” value is -0.04 kcal/mol.

Consider GGTATCACGTGAAGGT, for which the “relative binding free energy” value was found to be 0.31 kcal/mol.

GGAGTCACGTGTGGGA: the “relative binding free energy” value came to 0.17 kcal/mol.

In the case of GATGGCACGTGGATTG, the “relative binding free energy” value is -0.06 kcal/mol.

Turning to AGTTTCACGTGAGGTT, the “relative binding free energy” value was determined as 0.33 kcal/mol.

Take TGGAACACGTGTAGAG: the “relative binding free energy” value is 0.07 kcal/mol.

For TGAAGCACGTGTGGTC, the “relative binding free energy” value was -0.12 kcal/mol.

Take GGTAGCACGTGATATT: the “relative binding free energy” value was determined as 0.11 kcal/mol.

Turning to TTGGGCACGTGAGATT, the “relative binding free energy” value was 0.12 kcal/mol.

Take TCGTGCACGTGGCTGT: the “relative binding free energy” value was -0.22 kcal/mol.

With TTGAGCACGTGTATTT, the “relative binding free energy” value amounted to 0.09 kcal/mol.

For AGCTTCACGTGTGGCG, the “relative binding free energy” value is 0.23 kcal/mol.

Turning to ATAATCACGTGGAGTG, the “relative binding free energy” value is -0.03 kcal/mol.

With TTGGACACGTGCTGGA, the “relative binding free energy” value is 0.06 kcal/mol.

For AGGTTCACGTGATAGG, the “relative binding free energy” value worked out at 0.33 kcal/mol.

With CTTGTCACGTGGTTAA, the “relative binding free energy” value was 0.02 kcal/mol.

For AGGCGCACGTGGTGGT, the “relative binding free energy” value is -0.29 kcal/mol.

With TGTGACACGTGGTGCG, the “relative binding free energy” value is -0.18 kcal/mol.

CTTCGCACGTGGTTGT: the “relative binding free energy” value was -0.08 kcal/mol.

In the case of GTGAGCACGTGAAATG, the “relative binding free energy” value worked out at 0.35 kcal/mol.

Turning to TGTGGCACGTGGTAAC, the “relative binding free energy” value was -0.07 kcal/mol.

On to GGCTTCACGTGGGGAT, for which the “relative binding free energy” value was 0.18 kcal/mol.

As for CAGATCACGTGGGGGT, the “relative binding free energy” value is -0.04 kcal/mol.

TCGTTCACGTGTGTGG: the “relative binding free energy” value came to 0.38 kcal/mol.

As for GGTTTCACGTGATAGA, the “relative binding free energy” value worked out at 0.36 kcal/mol.

On to TTATACACGTGATAAT, for which the “relative binding free energy” value came out at 0.3 kcal/mol.

For the sequence GGTCGCACGTGCTAGG, the “relative binding free energy” value was -0.14 kcal/mol.

In the case of TCCGGCACGTGATTGG, the “relative binding free energy” value came out at 0.12 kcal/mol.

Regarding TGTGTCACGTGTGCGT, the “relative binding free energy” value is 0.06 kcal/mol.

For the sequence CTGGTCACGTGGATGG, the “relative binding free energy” value is 0.2 kcal/mol.

Take TGCTTCACGTGCGTAT: the “relative binding free energy” value is 0.19 kcal/mol.

As for CGTATCACGTGTTGGG, the “relative binding free energy” value stood at 0.25 kcal/mol.

For GCGGGCACGTGTGGCT, the “relative binding free energy” value is -0.06 kcal/mol.

Consider CGGGCCACGTGGAGTG, for which the “relative binding free energy” value is -0.11 kcal/mol.

As to AGTAGCACGTGTAAGG, the “relative binding free energy” value turned out to be 0.07 kcal/mol.

Take TTGGGCACGTGGACGC: the “relative binding free energy” value is -0.07 kcal/mol.

In the case of TGTCACACGTGTAATA, the “relative binding free energy” value was 0.25 kcal/mol.

Turning to CTCTGCACGTGATGGG, the “relative binding free energy” value was 0.11 kcal/mol.

For GGTTACACGTGGAATT, the “relative binding free energy” value worked out at 0.24 kcal/mol.

Regarding AAGTTCACGTGTGTTC, the “relative binding free energy” value turned out to be 0.3 kcal/mol.

For GAATGCACGTGGAAGT, the “relative binding free energy” value came out at 0.05 kcal/mol.

As for GCAGGCACGTGTGGCA, the “relative binding free energy” value was 0.06 kcal/mol.

For the sequence GGCGACACGTGTAGAG, the “relative binding free energy” value is 0.21 kcal/mol.

On to AATTACACGTGCATGT, for which the “relative binding free energy” value is 0.16 kcal/mol.

GGGGTCACGTGATGTT: the “relative binding free energy” value came to 0.33 kcal/mol.

The values are drawn from the BET-seq Pho4 binding data (Le et al. 2018).
